# Assay results taken from PubChem BioAssay AID504832 (National Center for Advancing Translational Sciences (NCATS), 2011).
# Among all 310,000 compounds or so, about 18,000 (5.8%) were called active. This list was built around the results that the source calls inconclusive (neither active nor inactive); the mix of calls is not that of the screen. Calls come from the whole dose curve; as a rule, active = well fitted inhibition curve with a large enough effect; inconclusive = small, poorly fitted or top-dose-only effect, or another doubt; inactive = no such curve, though single readings can be large or run the other way. Potencies of inconclusive entries are left out as doubtful fits.
# Assay: Primary qHTS for delayed death inhibitors of the malarial parasite plastid, 48 hour incubation
# Conditions: P. falciparum luciferase growth in erythrocytes; series mostly up to 28.7 µM
# How it was run: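 Parasite viability was followed by luminescence of a genomically integrated firefly luciferase. Cultures held 0.1% parasitemia at 2% hematocrit (final), incubated under 5% CO2 at 37 C.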
# Potency is the fitted concentration of half-maximal effect; tags give direction and shape of the fitted curve.
row,SMILES,Potency
1,COc1ccc(C2=NC(C(F)(F)F)(C(F)(F)F)c3c(n(C)c(=O)n(C)c3=O)N2)cc1,"inconclusive [inhibitor, full curve, poor fit]"
2,Cn1cc[n+](C)c1COc1ccc(C=O)cc1,inactive
3,COC(=O)Cc1ccc(OC(=O)C2CCN(S(=O)(=O)c3ccc(OC)c(OC)c3)CC2)cc1,"inconclusive [inhibitor, single point]"
4,CCN(CCCNC(=O)COc1cc(=O)n(C)c2ccccc12)c1ccccc1,"inconclusive [inhibitor, partial curve]"
5,CC1Cc2ccccc2N1C(=O)CSC1=NCCS1 (stereo not drawn),"inconclusive [inhibitor, single point]"
6,CCCCCCc1cc2cc(-c3nnc(-c4ccccc4OC)o3)c(=O)oc2cc1O,active: 3.7 µM
7,COc1ccc(OC)c(NC(=O)c2cc3c(Cl)nc4ccccc4c3s2)c1,inactive
8,COc1ccc2[nH]c(=O)c(CN(Cc3nnnn3Cc3ccccc3)CC3CCCO3)cc2c1 (stereo not drawn),"inconclusive [inhibitor, partial curve, poor fit]"
9,CCOC(=O)c1c(NC(=O)COC(=O)CCOc2ccc(C)cc2)sc(C(=O)N(C)C)c1C,inactive
10,CSc1c(C#N)sc(=S)n1-c1ccc(C)cc1,"inconclusive [inhibitor, full curve, poor fit]"
11,COc1ccccc1CNC(=O)N1CCN(c2ccccc2C)CC1,"inconclusive [inhibitor, single point]"
12,Cc1cc(NC(=O)CSc2nnnn2-c2ccccc2C)no1,"inconclusive [inhibitor, partial curve]"
13,C[C@H](CCC(=O)O)[C@H]1CC[C@H]2[C@@H]3[C@H](O)C[C@@H]4C[C@H](O)CC[C@]4(C)[C@H]3CC[C@]12C,"inconclusive [inhibitor, single point]"
14,CN(C(=S)Nc1ccc(Oc2ccccc2)cc1)c1ccc(O)cc1,inactive
15,Nc1nc(-c2cccc(NS(=O)(=O)c3ccccc3)c2)cs1,"inconclusive [inhibitor, partial curve, poor fit]"
16,c1ccc(-c2nnc(-c3ccccn3)c(-c3ccccn3)n2)nc1,"inconclusive [inhibitor, single point]"
17,Cc1ccc(NC(=O)CN(C)C(=O)COc2c(Cl)cc(Cl)c3ccc(C)nc23)cc1,active: 4.15 µM
18,CCN(C(=O)c1ccc(N2CC3CC(C2)c2cccc(=O)n2C3)c(NC(=O)c2ccncc2)c1)c1cccc(C)c1 (stereo not drawn),"inconclusive [inhibitor, partial curve]"
